Measurements published in the supplement of paper PMC5895741.

B1: MS2 coat protein; the commonest letter at each place (parent)
chain: MASNFTQFVLVDNGGTGDVTVAPSNFANGVAEWISSNSRSQAYKVTCSVRQSSAQNRKYTIKVEVPKVATQTVGGVELPVAAWRSYLNMELTIPIFATNSDCELIVKAMQGLLKDGNPIPSAIAANSGIY

Variants of: B1
Test: apparent fitness score (VLP assembly selection enrichment vs plasmid library) (log10 ratio); higher = better expression / assembly into well-formed VLPs
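Further: counts from Illumina MiSeq reads, cDNA of packaged RNA versus plasmid DNA taken before selection, each replicate independent from library construction onward, expression induced with 0.1% arabinose.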

Variant | apparent fitness score (log10)
MASNFTQFVLVDNGGTGDVTVAPSNFANGVAEWISSNSRSQAYKVTCSFRQSSAQNRKYTIKVEVPKVATQTVGGVELPVAAWRSYLNMELTIPIFATNSDCELIVKAMQGLLKDGNPIPSAIAANSGIY [V49F] | -0.832
MASNFTQFVLVDNGGTGDVTVAPSNFANGVAEWISSNSRSQAYKVTCSGRQSSAQNRKYTIKVEVPKVATQTVGGVELPVAAWRSYLNMELTIPIFATNSDCELIVKAMQGLLKDGNPIPSAIAANSGIY [V49G] | < -4
MASNFTQFVLVDNGGTGDVTVAPSNFANGVAEWISSNSRSQAYKVTCSHRQSSAQNRKYTIKVEVPKVATQTVGGVELPVAAWRSYLNMELTIPIFATNSDCELIVKAMQGLLKDGNPIPSAIAANSGIY [V49H] | 0.0878
MASNFTQFVLVDNGGTGDVTVAPSNFANGVAEWISSNSRSQAYKVTCSIRQSSAQNRKYTIKVEVPKVATQTVGGVELPVAAWRSYLNMELTIPIFATNSDCELIVKAMQGLLKDGNPIPSAIAANSGIY [V49I] | -0.143
MASNFTQFVLVDNGGTGDVTVAPSNFANGVAEWISSNSRSQAYKVTCSKRQSSAQNRKYTIKVEVPKVATQTVGGVELPVAAWRSYLNMELTIPIFATNSDCELIVKAMQGLLKDGNPIPSAIAANSGIY [V49K] | -1.28
MASNFTQFVLVDNGGTGDVTVAPSNFANGVAEWISSNSRSQAYKVTCSLRQSSAQNRKYTIKVEVPKVATQTVGGVELPVAAWRSYLNMELTIPIFATNSDCELIVKAMQGLLKDGNPIPSAIAANSGIY [V49L] | 0.695
MASNFTQFVLVDNGGTGDVTVAPSNFANGVAEWISSNSRSQAYKVTCSMRQSSAQNRKYTIKVEVPKVATQTVGGVELPVAAWRSYLNMELTIPIFATNSDCELIVKAMQGLLKDGNPIPSAIAANSGIY [V49M] | -0.244
MASNFTQFVLVDNGGTGDVTVAPSNFANGVAEWISSNSRSQAYKVTCSNRQSSAQNRKYTIKVEVPKVATQTVGGVELPVAAWRSYLNMELTIPIFATNSDCELIVKAMQGLLKDGNPIPSAIAANSGIY [V49N] | 0.382
MASNFTQFVLVDNGGTGDVTVAPSNFANGVAEWISSNSRSQAYKVTCSPRQSSAQNRKYTIKVEVPKVATQTVGGVELPVAAWRSYLNMELTIPIFATNSDCELIVKAMQGLLKDGNPIPSAIAANSGIY [V49P] | < -4
MASNFTQFVLVDNGGTGDVTVAPSNFANGVAEWISSNSRSQAYKVTCSQRQSSAQNRKYTIKVEVPKVATQTVGGVELPVAAWRSYLNMELTIPIFATNSDCELIVKAMQGLLKDGNPIPSAIAANSGIY [V49Q] | -0.408
MASNFTQFVLVDNGGTGDVTVAPSNFANGVAEWISSNSRSQAYKVTCSRRQSSAQNRKYTIKVEVPKVATQTVGGVELPVAAWRSYLNMELTIPIFATNSDCELIVKAMQGLLKDGNPIPSAIAANSGIY [V49R] | < -4
MASNFTQFVLVDNGGTGDVTVAPSNFANGVAEWISSNSRSQAYKVTCSSRQSSAQNRKYTIKVEVPKVATQTVGGVELPVAAWRSYLNMELTIPIFATNSDCELIVKAMQGLLKDGNPIPSAIAANSGIY [V49S] | 0.732
MASNFTQFVLVDNGGTGDVTVAPSNFANGVAEWISSNSRSQAYKVTCSTRQSSAQNRKYTIKVEVPKVATQTVGGVELPVAAWRSYLNMELTIPIFATNSDCELIVKAMQGLLKDGNPIPSAIAANSGIY [V49T] | 0.635
MASNFTQFVLVDNGGTGDVTVAPSNFANGVAEWISSNSRSQAYKVTCSWRQSSAQNRKYTIKVEVPKVATQTVGGVELPVAAWRSYLNMELTIPIFATNSDCELIVKAMQGLLKDGNPIPSAIAANSGIY [V49W] | -0.512
MASNFTQFVLVDNGGTGDVTVAPSNFANGVAEWISSNSRSQAYKVTCSYRQSSAQNRKYTIKVEVPKVATQTVGGVELPVAAWRSYLNMELTIPIFATNSDCELIVKAMQGLLKDGNPIPSAIAANSGIY [V49Y] | 0.0232
MASNFTQFVLVDNGGTGDVTVAPSNFANGVAEWISSNSRSQAYKVTCSVAQSSAQNRKYTIKVEVPKVATQTVGGVELPVAAWRSYLNMELTIPIFATNSDCELIVKAMQGLLKDGNPIPSAIAANSGIY [R50A] | < -4
MASNFTQFVLVDNGGTGDVTVAPSNFANGVAEWISSNSRSQAYKVTCSVCQSSAQNRKYTIKVEVPKVATQTVGGVELPVAAWRSYLNMELTIPIFATNSDCELIVKAMQGLLKDGNPIPSAIAANSGIY [R50C] | -0.0281
MASNFTQFVLVDNGGTGDVTVAPSNFANGVAEWISSNSRSQAYKVTCSVDQSSAQNRKYTIKVEVPKVATQTVGGVELPVAAWRSYLNMELTIPIFATNSDCELIVKAMQGLLKDGNPIPSAIAANSGIY [R50D] | < -4
MASNFTQFVLVDNGGTGDVTVAPSNFANGVAEWISSNSRSQAYKVTCSVEQSSAQNRKYTIKVEVPKVATQTVGGVELPVAAWRSYLNMELTIPIFATNSDCELIVKAMQGLLKDGNPIPSAIAANSGIY [R50E] | -1.47
MASNFTQFVLVDNGGTGDVTVAPSNFANGVAEWISSNSRSQAYKVTCSVFQSSAQNRKYTIKVEVPKVATQTVGGVELPVAAWRSYLNMELTIPIFATNSDCELIVKAMQGLLKDGNPIPSAIAANSGIY [R50F] | -0.435
MASNFTQFVLVDNGGTGDVTVAPSNFANGVAEWISSNSRSQAYKVTCSVGQSSAQNRKYTIKVEVPKVATQTVGGVELPVAAWRSYLNMELTIPIFATNSDCELIVKAMQGLLKDGNPIPSAIAANSGIY [R50G] | 0.341
MASNFTQFVLVDNGGTGDVTVAPSNFANGVAEWISSNSRSQAYKVTCSVHQSSAQNRKYTIKVEVPKVATQTVGGVELPVAAWRSYLNMELTIPIFATNSDCELIVKAMQGLLKDGNPIPSAIAANSGIY [R50H] | 0.406

Variant | apparent fitness score (log10)
MASNFTQFVLVDNGGTGDVTVAPSNFANGVAEWISSNSRSQAYKVTCSVIQSSAQNRKYTIKVEVPKVATQTVGGVELPVAAWRSYLNMELTIPIFATNSDCELIVKAMQGLLKDGNPIPSAIAANSGIY [R50I] | -0.0555
MASNFTQFVLVDNGGTGDVTVAPSNFANGVAEWISSNSRSQAYKVTCSVKQSSAQNRKYTIKVEVPKVATQTVGGVELPVAAWRSYLNMELTIPIFATNSDCELIVKAMQGLLKDGNPIPSAIAANSGIY [R50K] | 1.02
MASNFTQFVLVDNGGTGDVTVAPSNFANGVAEWISSNSRSQAYKVTCSVLQSSAQNRKYTIKVEVPKVATQTVGGVELPVAAWRSYLNMELTIPIFATNSDCELIVKAMQGLLKDGNPIPSAIAANSGIY [R50L] | -0.798
MASNFTQFVLVDNGGTGDVTVAPSNFANGVAEWISSNSRSQAYKVTCSVMQSSAQNRKYTIKVEVPKVATQTVGGVELPVAAWRSYLNMELTIPIFATNSDCELIVKAMQGLLKDGNPIPSAIAANSGIY [R50M] | -0.67
MASNFTQFVLVDNGGTGDVTVAPSNFANGVAEWISSNSRSQAYKVTCSVNQSSAQNRKYTIKVEVPKVATQTVGGVELPVAAWRSYLNMELTIPIFATNSDCELIVKAMQGLLKDGNPIPSAIAANSGIY [R50N] | < -4
MASNFTQFVLVDNGGTGDVTVAPSNFANGVAEWISSNSRSQAYKVTCSVPQSSAQNRKYTIKVEVPKVATQTVGGVELPVAAWRSYLNMELTIPIFATNSDCELIVKAMQGLLKDGNPIPSAIAANSGIY [R50P] | 0.28
MASNFTQFVLVDNGGTGDVTVAPSNFANGVAEWISSNSRSQAYKVTCSVQQSSAQNRKYTIKVEVPKVATQTVGGVELPVAAWRSYLNMELTIPIFATNSDCELIVKAMQGLLKDGNPIPSAIAANSGIY [R50Q] | < -4
MASNFTQFVLVDNGGTGDVTVAPSNFANGVAEWISSNSRSQAYKVTCSVSQSSAQNRKYTIKVEVPKVATQTVGGVELPVAAWRSYLNMELTIPIFATNSDCELIVKAMQGLLKDGNPIPSAIAANSGIY [R50S] | -0.178
MASNFTQFVLVDNGGTGDVTVAPSNFANGVAEWISSNSRSQAYKVTCSVTQSSAQNRKYTIKVEVPKVATQTVGGVELPVAAWRSYLNMELTIPIFATNSDCELIVKAMQGLLKDGNPIPSAIAANSGIY [R50T] | < -4
MASNFTQFVLVDNGGTGDVTVAPSNFANGVAEWISSNSRSQAYKVTCSVVQSSAQNRKYTIKVEVPKVATQTVGGVELPVAAWRSYLNMELTIPIFATNSDCELIVKAMQGLLKDGNPIPSAIAANSGIY [R50V] | -0.713
MASNFTQFVLVDNGGTGDVTVAPSNFANGVAEWISSNSRSQAYKVTCSVWQSSAQNRKYTIKVEVPKVATQTVGGVELPVAAWRSYLNMELTIPIFATNSDCELIVKAMQGLLKDGNPIPSAIAANSGIY [R50W] | < -4
MASNFTQFVLVDNGGTGDVTVAPSNFANGVAEWISSNSRSQAYKVTCSVYQSSAQNRKYTIKVEVPKVATQTVGGVELPVAAWRSYLNMELTIPIFATNSDCELIVKAMQGLLKDGNPIPSAIAANSGIY [R50Y] | -1.09
MASNFTQFVLVDNGGTGDVTVAPSNFANGVAEWISSNSRSQAYKVTCSVRASSAQNRKYTIKVEVPKVATQTVGGVELPVAAWRSYLNMELTIPIFATNSDCELIVKAMQGLLKDGNPIPSAIAANSGIY [Q51A] | -0.41
MASNFTQFVLVDNGGTGDVTVAPSNFANGVAEWISSNSRSQAYKVTCSVRCSSAQNRKYTIKVEVPKVATQTVGGVELPVAAWRSYLNMELTIPIFATNSDCELIVKAMQGLLKDGNPIPSAIAANSGIY [Q51C] | -0.867
MASNFTQFVLVDNGGTGDVTVAPSNFANGVAEWISSNSRSQAYKVTCSVRDSSAQNRKYTIKVEVPKVATQTVGGVELPVAAWRSYLNMELTIPIFATNSDCELIVKAMQGLLKDGNPIPSAIAANSGIY [Q51D] | 0.241
MASNFTQFVLVDNGGTGDVTVAPSNFANGVAEWISSNSRSQAYKVTCSVRESSAQNRKYTIKVEVPKVATQTVGGVELPVAAWRSYLNMELTIPIFATNSDCELIVKAMQGLLKDGNPIPSAIAANSGIY [Q51E] | -0.263
MASNFTQFVLVDNGGTGDVTVAPSNFANGVAEWISSNSRSQAYKVTCSVRFSSAQNRKYTIKVEVPKVATQTVGGVELPVAAWRSYLNMELTIPIFATNSDCELIVKAMQGLLKDGNPIPSAIAANSGIY [Q51F] | -1.86
MASNFTQFVLVDNGGTGDVTVAPSNFANGVAEWISSNSRSQAYKVTCSVRGSSAQNRKYTIKVEVPKVATQTVGGVELPVAAWRSYLNMELTIPIFATNSDCELIVKAMQGLLKDGNPIPSAIAANSGIY [Q51G] | 0.582
MASNFTQFVLVDNGGTGDVTVAPSNFANGVAEWISSNSRSQAYKVTCSVRHSSAQNRKYTIKVEVPKVATQTVGGVELPVAAWRSYLNMELTIPIFATNSDCELIVKAMQGLLKDGNPIPSAIAANSGIY [Q51H] | 0.276
MASNFTQFVLVDNGGTGDVTVAPSNFANGVAEWISSNSRSQAYKVTCSVRISSAQNRKYTIKVEVPKVATQTVGGVELPVAAWRSYLNMELTIPIFATNSDCELIVKAMQGLLKDGNPIPSAIAANSGIY [Q51I] | -1.47
MASNFTQFVLVDNGGTGDVTVAPSNFANGVAEWISSNSRSQAYKVTCSVRKSSAQNRKYTIKVEVPKVATQTVGGVELPVAAWRSYLNMELTIPIFATNSDCELIVKAMQGLLKDGNPIPSAIAANSGIY [Q51K] | 1.17
MASNFTQFVLVDNGGTGDVTVAPSNFANGVAEWISSNSRSQAYKVTCSVRLSSAQNRKYTIKVEVPKVATQTVGGVELPVAAWRSYLNMELTIPIFATNSDCELIVKAMQGLLKDGNPIPSAIAANSGIY [Q51L] | 0.262
